# Assay results: the supplement of paper PMC10441789
# This is one part of the list. Antibody binding of pooled human sera (four to six donors per pool; dilution not stated) to peptides of the Trypanosoma cruzi antigen TSSA on microarrays. Quantile-normalised fluorescence in arbitrary units, mean of duplicate arrays; higher = more binding. No active / inactive call. The uninfected pools are read here as the healthy donors of the same country. The strongest signals lie near the top of the scale (about 60,000).
# Columns and labels:
# Test in all cases: antibody binding signal (normalised fluorescence) (arbitrary fluorescence units); higher = stronger serum antibody binding to peptide
# [1] = tested on: pooled sera of chronic Chagas disease patients, Argentina
# Protocol: (§1)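 Microarray of 15-residue peptides over residues 30-55 of Trypanosoma cruzi TSSAII, each with 1 to 10 substitutions at naturally variable positions, probed with one serum pool per country.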
# [2] = tested on: pooled sera of chronic Chagas disease patients, Bolivia
# Protocol: as §1
# [3] = tested on: pooled sera of chronic Chagas disease patients, Brazil
# Protocol: as §1
# [4] = tested on: pooled sera of chronic Chagas disease patients, Colombia
# Protocol: as §1
# [5] = tested on: pooled sera of chronic Chagas disease patients, Mexico
# Protocol: as §1
# [6] = tested on: pooled sera of chronic Chagas disease patients, USA
# Protocol: as §1
# [7] = tested on: pooled sera of uninfected people, Argentina
# Protocol: as §1
# [8] = tested on: pooled sera of uninfected people, Bolivia
# Protocol: as §1
# [9] = tested on: pooled sera of uninfected people, Brazil
# Protocol: as §1
# [10] = tested on: pooled sera of uninfected people, Mexico
# Protocol: as §1
# [11] = tested on: pooled sera of uninfected people, USA
# Protocol: as §1
Sequence,antibody binding signal [1],antibody binding signal [2],antibody binding signal [3],antibody binding signal [4],antibody binding signal [5],antibody binding signal [6],antibody binding signal [7],antibody binding signal [8],antibody binding signal [9],antibody binding signal [10],antibody binding signal [11]
GKENKAAAGETPSPS,5470,1110,11900,8410,8990,17300,402,170,99.4,192,1300
SGTDNKTATGGTPSP,658,1020,43100,703,425,465,252,653,1870,201,253
PSGKEKKTAAGGAPS,6230,702,6120,11300,8940,6990,336,154,113,117,135
TEKKTATGEAPSPPG,12600,26000,14500,427,412,19800,263,126,509,157,147
GTDKKTATGETPSQP,734,1740,29300,1390,578,7330,336,272,336,262,127
GKEKKPAAGEAPSQS,4880,1490,5180,2900,3830,11800,98.8,83.6,100,76.5,244
TDKKAATGGTPSPPG,1200,526,321,2070,617,1040,218,144,610,116,126
NKPAAGETPSQPGAS,1330,10100,41500,342,210,3520,439,1910,543,208,1150
TDNKPATGGAPSPSG,2380,19900,6400,391,367,2820,241,1050,435,412,171
GKDNKAAAGEAPSQP,5480,7310,36100,4790,4700,12100,219,392,122,83.4,95.2
PPSGTDNKPAAGGAP,43800,39800,47200,7040,4870,14500,1220,1260,1350,854,826
GKDNKTAAGETPSQP,1570,1110,28700,3210,1980,2560,291,332,172,159,134
ENKAAAGGTPSQSGA,391,755,419,3200,307,1200,234,174,2000,214,161
STPPSGTENKPAAGE,50000,47400,50400,272,7130,44700,8920,1040,365,526,517
SGKEKKTAAGEAPSQ,5780,6280,5700,3320,7640,8840,296,174,94.4,178,104
KDNKTAAGGTPSQPG,927,249,458,4060,216,1260,493,159,417,756,148
TSSTPPSGKDNKAAT,8690,4680,4430,698,14900,1790,275,471,118,129,150
TDNKAATGETPSQPG,6100,5470,40000,134,169,12500,107,621,354,123,183
TSSTPPSGTDNKTAA,38000,48800,52500,1290,13900,22100,3710,764,1930,239,648
GTDNKAATGGAPSQS,643,384,33900,838,534,1700,301,588,1710,208,108
TSSTPPSGTENKTAT,47800,51200,51700,332,3150,30500,3820,610,417,576,582
TISTPPSGKDKKTAA,19200,334,1030,373,40100,502,335,209,123,87.4,175
TENKAATGGTPSPPG,33900,1100,338,408,428,232,160,126,372,154,183
TEKKAATGGAPSPSG,2180,357,1080,2940,2200,3330,470,1180,155,241,238
PPSGKENKPATGGAP,7260,6680,8230,919,3260,11900,4970,3020,196,251,905
PSGKEKKTAAGETPS,4620,1330,6160,6690,7630,6260,347,416,103,164,163
TEKKAAAGGTPSPSG,813,207,190,7480,725,2720,111,111,2490,212,713

Sequence,antibody binding signal [1],antibody binding signal [2],antibody binding signal [3],antibody binding signal [4],antibody binding signal [5],antibody binding signal [6],antibody binding signal [7],antibody binding signal [8],antibody binding signal [9],antibody binding signal [10],antibody binding signal [11]
KENKPAAGEAPSQSG,474,8400,30000,302,504,15800,179,289,127,155,111
NKAATGGTPSPSGAS,576,624,5780,404,496,378,636,824,761,171,1220
TPPSGKENKPAAGEA,27100,40000,13200,528,10100,13300,1660,2100,426,304,425
DNKTATGETPSQPGA,1820,4140,32400,297,173,6170,150,720,322,262,259
ISTPPSGTDNKPATG,37800,45400,51000,4290,10100,27200,1180,1450,879,693,485
GTEKKTATGGTPSQP,1280,453,841,4010,1020,1980,418,379,266,808,128
TPPSGKDNKTATGET,4920,2640,2200,1030,26000,2340,269,451,166,124,121
KDKKTATGGAPSQPG,553,244,469,664,494,283,240,98.9,102,96.5,111
SSTPPSGTDNKAAAG,47900,44300,51300,2430,23200,20000,1160,731,1780,257,365
TPPSGKDNKTAAGEA,5610,2710,2240,878,22900,2470,238,541,250,509,144
GKENKTAAGGAPSPS,612,204,1940,3970,1550,6100,448,108,120,116,125
KDNKAAAGGTPSPPG,305,209,146,901,125,740,172,1580,407,86.3,92.5
TDNKAAAGGAPSPSG,268,394,380,3270,264,498,397,301,277,187,256
DNKTAAGETPSQPGA,714,4120,32800,602,269,1030,141,920,274,321,189
GKENKPAAGETPSQS,6900,1560,23200,12400,10400,13600,841,467,187,287,129
PPSGTEKKTATGGTP,19700,2010,12800,3170,2020,3870,806,359,356,134,190
TPPSGKDNKPATGGA,17400,1010,27400,493,38200,13400,987,1490,226,185,305
SGTEKKPATGEAPSQ,44500,50800,47800,321,358,39700,905,879,531,226,275
PPSGKDKKAATGEAP,16000,3870,9830,1240,16500,17800,413,299,101,85.7,117
SSTPPSGTDKKAATG,35600,7760,35900,8880,44600,5700,591,127,157,1490,251
SGKDNKTATGGTPSQ,904,396,694,3130,839,2260,324,152,148,106,197
PSGTDKKAAAGGTPS,1430,287,3800,9460,2600,2310,161,358,799,462,223
SSTPPSGKDNKAATG,7630,2680,4090,500,17600,2520,301,598,144,120,173
PPSGTENKTATGGAP,41000,42700,47900,410,3780,12900,2440,940,339,512,1120
GKEKKTAAGGAPSPS,541,309,209,4220,845,861,133,98.3,108,143,129
PPSGTDNKTATGETP,35000,29800,42700,621,1970,9430,461,550,784,156,209
TDKKAAAGGTPSPSG,1430,206,160,5840,499,1580,121,119,1210,118,208
